Paper PMC10117100
Results are given in words; binding and its absence hold for the method and conditions named. Binding seen in cells or lysates may run through a third protein. Some entries that bind do so weakly or less than the wild type. For some of these results: Tags and fused reporters may be left off the sequences shown.

Sequences of proteins named here, by UniProt entry; tags and fusion partners are left off. A change or cut given only in a name is not applied to a line headed by its entry.
UniProt P03129: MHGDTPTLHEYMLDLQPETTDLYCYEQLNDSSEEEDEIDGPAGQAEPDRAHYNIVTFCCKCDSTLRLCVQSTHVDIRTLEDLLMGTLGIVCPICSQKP
UniProt Q16254: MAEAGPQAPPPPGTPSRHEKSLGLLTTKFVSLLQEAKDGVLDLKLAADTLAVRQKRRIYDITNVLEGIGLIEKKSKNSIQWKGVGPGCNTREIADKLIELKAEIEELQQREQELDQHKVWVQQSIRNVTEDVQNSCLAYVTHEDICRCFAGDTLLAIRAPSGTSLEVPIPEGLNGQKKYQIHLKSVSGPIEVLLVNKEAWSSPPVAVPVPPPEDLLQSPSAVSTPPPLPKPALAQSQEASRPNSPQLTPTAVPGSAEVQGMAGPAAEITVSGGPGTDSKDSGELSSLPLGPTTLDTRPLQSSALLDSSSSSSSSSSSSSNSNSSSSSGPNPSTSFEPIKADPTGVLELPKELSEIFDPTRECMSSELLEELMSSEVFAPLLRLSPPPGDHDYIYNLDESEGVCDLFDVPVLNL
UniProt Q08999: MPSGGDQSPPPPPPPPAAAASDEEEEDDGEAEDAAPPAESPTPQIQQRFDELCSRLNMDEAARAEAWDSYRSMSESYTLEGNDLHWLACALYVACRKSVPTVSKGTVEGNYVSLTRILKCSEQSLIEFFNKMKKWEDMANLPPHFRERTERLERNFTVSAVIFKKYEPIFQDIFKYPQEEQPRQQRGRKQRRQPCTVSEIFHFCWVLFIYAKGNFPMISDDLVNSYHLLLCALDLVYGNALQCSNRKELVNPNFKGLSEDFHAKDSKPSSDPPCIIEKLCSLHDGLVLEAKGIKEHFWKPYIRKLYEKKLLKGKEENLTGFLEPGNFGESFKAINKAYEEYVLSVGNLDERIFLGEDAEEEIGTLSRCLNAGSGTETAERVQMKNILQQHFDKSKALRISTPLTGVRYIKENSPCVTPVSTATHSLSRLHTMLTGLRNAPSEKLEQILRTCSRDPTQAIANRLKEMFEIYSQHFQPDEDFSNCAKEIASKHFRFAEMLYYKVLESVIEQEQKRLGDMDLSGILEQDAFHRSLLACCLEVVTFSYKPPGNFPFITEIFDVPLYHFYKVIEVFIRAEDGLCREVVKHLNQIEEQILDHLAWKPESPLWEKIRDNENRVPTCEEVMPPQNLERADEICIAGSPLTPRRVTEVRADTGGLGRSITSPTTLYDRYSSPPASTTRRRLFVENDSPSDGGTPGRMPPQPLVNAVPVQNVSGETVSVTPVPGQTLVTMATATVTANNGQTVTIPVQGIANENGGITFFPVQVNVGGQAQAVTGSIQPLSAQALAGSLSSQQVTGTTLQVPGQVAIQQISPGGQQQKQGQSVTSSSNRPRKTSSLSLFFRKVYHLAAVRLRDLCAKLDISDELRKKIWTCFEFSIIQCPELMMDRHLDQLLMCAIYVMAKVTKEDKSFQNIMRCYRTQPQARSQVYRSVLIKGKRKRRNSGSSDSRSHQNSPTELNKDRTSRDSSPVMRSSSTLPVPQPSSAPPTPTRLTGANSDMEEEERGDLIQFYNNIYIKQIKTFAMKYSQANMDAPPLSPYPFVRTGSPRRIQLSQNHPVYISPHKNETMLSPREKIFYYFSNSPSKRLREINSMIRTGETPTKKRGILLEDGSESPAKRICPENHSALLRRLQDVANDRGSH
UniProt Q14186: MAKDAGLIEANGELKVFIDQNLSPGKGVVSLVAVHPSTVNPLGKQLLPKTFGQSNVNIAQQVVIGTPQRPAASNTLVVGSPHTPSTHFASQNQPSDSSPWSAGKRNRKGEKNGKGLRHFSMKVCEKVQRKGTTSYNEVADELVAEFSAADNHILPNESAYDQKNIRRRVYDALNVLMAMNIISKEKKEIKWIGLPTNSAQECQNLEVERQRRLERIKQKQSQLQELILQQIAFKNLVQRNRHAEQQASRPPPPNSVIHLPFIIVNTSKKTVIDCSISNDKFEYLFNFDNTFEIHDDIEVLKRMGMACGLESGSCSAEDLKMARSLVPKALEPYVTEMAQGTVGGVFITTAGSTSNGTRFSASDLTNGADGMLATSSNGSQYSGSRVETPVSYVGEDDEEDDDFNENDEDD

How the values were obtained:
Gluc1-ΔNp73α FL (human) = Gluc1-ΔNp73α FL (human) (UniProt O15350); assay: split reporter; Gaussia princeps protein complementation assay (GPCA): Gluc1 and Gluc2 N-terminal fusions co-transfected in HEK293T, luminescence of lysates after 48 h as normalized luminescence ratio (NLR); pairs count as interacting if NLR is above 5
HA-ΔNp73α (human) [1] = molecular target: T1, HA-ΔNp73α (human) (UniProt O15350); assay: co-IP; nuclear extracts of 38HK stably expressing HA-ΔNp73α, fractionated by size exclusion chromatography (Superose 6 10/300 increase), fractions precipitated with anti-HA agarose beads
T1 sequence: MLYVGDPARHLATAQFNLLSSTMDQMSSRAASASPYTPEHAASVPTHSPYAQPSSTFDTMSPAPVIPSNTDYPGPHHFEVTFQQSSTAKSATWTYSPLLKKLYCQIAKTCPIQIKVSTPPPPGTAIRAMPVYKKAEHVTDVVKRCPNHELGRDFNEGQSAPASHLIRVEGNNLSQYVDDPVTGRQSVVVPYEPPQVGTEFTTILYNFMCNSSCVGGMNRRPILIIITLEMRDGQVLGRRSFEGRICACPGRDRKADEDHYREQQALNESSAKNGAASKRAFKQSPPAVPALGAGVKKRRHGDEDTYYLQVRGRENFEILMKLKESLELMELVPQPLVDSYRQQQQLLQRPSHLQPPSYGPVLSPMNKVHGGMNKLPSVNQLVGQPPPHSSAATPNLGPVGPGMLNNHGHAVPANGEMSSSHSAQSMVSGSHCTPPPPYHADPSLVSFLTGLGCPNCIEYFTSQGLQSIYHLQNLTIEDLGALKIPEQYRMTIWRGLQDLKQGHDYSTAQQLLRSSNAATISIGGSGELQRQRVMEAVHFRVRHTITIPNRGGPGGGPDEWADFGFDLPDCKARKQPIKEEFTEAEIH

HA-ΔNp73α (human) [2] = molecular target: T1, HA-ΔNp73α (human); assay: co-IP; nuclear extracts of 38HK stably expressing HA-ΔNp73α, 50 to 10% sucrose gradient, fractions precipitated with anti-HA agarose beads, Western blot; also after scramble, E2F4 or E2F4 plus E2F5 siRNAs
MBP-TAp73α FL (human) = molecular target: T2, MBP-TAp73α FL (human) (UniProt O15350); assay: pull-down; MBP fusions on amylose resin incubated with clarified lysates of HEK293T expressing 3xFlag-E2F4, 2 h at 4°C, PD buffer (20 mM Tris pH 8.0, 150 mM NaCl, 2 mM DTT), elution with 20 mM maltose, anti-Flag Western blot; only the target purified
T2 sequence: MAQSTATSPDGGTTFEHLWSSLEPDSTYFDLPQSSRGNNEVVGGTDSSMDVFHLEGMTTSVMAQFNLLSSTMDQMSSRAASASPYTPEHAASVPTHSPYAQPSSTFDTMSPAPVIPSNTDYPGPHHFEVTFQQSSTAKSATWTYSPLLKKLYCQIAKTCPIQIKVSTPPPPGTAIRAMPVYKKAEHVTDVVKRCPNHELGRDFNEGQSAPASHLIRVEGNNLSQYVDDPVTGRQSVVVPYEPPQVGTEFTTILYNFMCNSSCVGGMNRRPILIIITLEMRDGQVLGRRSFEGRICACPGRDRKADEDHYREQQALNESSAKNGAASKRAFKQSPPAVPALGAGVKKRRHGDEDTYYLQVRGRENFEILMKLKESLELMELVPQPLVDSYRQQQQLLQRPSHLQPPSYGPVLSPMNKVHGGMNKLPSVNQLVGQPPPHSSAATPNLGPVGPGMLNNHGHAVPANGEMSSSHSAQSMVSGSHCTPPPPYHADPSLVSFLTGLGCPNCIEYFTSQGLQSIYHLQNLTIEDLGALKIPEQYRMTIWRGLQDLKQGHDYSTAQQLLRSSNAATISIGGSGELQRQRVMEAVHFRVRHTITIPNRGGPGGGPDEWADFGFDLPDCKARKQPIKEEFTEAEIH

MBP-ΔNp73α FL (human) = molecular target: T3, MBP-ΔNp73α FL (human) (UniProt O15350); assay: as above
T3 sequence: T1 sequence

[3] = molecular target: T4, endogenous ΔNp73α (HNC-136) (human (endogenous in HNC-136)) (UniProt O15350); assay: co-IP; nuclear extracts of HNC-136 cells, sucrose gradient, fractions precipitated with anti-p73 antibody-coupled beads, Western blot of endogenous proteins
T4 sequence: T1 sequence

Gluc1-TAp63α (human) = molecular target: T5, Gluc1-TAp63α (human) (UniProt Q9H3D4); assay: split reporter; Gaussia princeps protein complementation assay (GPCA): Gluc1 and Gluc2 N-terminal fusions co-transfected in HEK293T, luminescence of lysates after 48 h as normalized luminescence ratio (NLR); pairs count as interacting if NLR is above 5
T5 sequence: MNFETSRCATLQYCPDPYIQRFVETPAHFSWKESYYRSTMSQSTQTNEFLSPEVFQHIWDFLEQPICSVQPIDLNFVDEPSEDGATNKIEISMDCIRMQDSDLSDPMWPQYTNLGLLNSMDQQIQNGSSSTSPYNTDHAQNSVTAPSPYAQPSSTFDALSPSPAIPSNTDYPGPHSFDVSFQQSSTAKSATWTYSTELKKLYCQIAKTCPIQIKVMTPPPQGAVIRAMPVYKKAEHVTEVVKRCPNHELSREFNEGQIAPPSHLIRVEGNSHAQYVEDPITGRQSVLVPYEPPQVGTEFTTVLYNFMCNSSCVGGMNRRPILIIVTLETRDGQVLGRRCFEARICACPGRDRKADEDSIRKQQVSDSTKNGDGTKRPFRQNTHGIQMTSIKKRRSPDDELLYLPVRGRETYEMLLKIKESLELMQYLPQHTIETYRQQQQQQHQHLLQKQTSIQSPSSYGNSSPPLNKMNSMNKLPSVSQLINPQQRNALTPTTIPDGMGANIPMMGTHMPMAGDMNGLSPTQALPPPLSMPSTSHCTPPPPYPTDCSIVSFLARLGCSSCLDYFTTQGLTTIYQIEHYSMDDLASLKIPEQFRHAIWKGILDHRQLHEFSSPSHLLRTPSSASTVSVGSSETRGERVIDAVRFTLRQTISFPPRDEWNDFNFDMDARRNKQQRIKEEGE

[4] = molecular target: T6, Gluc1-ΔN(1 to 348) (human) (UniProt O15350); assay: as above
T6 sequence: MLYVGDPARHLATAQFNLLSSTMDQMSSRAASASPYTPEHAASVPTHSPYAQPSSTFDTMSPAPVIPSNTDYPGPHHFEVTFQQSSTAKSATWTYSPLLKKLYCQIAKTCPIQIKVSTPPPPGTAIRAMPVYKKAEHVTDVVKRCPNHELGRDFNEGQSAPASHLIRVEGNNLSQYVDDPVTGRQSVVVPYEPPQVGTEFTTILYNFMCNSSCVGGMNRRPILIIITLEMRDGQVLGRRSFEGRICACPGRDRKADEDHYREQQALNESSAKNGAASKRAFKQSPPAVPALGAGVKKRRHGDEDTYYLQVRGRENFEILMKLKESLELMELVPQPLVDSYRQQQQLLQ

[5] = molecular target: T7, Gluc1-ΔN(14 to 348) (human) (UniProt O15350); assay: as above
T7 sequence: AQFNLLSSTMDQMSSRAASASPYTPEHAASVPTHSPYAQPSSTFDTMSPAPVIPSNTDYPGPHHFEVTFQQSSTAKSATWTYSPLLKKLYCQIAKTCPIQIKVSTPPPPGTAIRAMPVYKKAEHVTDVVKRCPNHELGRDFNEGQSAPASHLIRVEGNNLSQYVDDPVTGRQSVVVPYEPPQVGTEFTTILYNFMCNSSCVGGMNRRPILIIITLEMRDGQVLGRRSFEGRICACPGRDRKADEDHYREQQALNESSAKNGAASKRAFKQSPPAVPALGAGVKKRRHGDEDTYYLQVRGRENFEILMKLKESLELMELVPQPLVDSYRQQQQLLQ

[6] = molecular target: T8, Gluc1-ΔN(262 to 348) (human) (UniProt O15350); assay: as above
T8 sequence: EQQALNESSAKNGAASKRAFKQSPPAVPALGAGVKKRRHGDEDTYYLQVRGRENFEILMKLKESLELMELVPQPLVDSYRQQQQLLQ

[7] = molecular target: Gluc1-16.E7 (human papillomavirus type 16) (UniProt P03129); assay: as above

“Gluc2-E2F(1 to 196) (from UniProt Q16254 1-196) (domain or fragment)” was tested, and the binding (Gluc1-ΔNp73α FL (human)) was “binds”.
For “Gluc2-E2F(89 to 196) (from UniProt Q16254 89-196) (domain or fragment)”, the binding (Gluc1-ΔNp73α FL (human)) was “binds”.
“endogenous E2F4 (38HK) (from UniProt Q16254 1-413)” was tested, and the binding (HA-ΔNp73α (human) [1]) was “binds” and the binding (HA-ΔNp73α (human) [2]) was “binds”.
In the case of “3xFlag-E2F4 FL (from UniProt Q16254 1-413)”, the binding (MBP-TAp73α FL (human)) is reported as “binds” and the binding (MBP-ΔNp73α FL (human)) is reported as “binds”.
For “endogenous E2F4 (HNC-136) (from UniProt Q16254 1-413)”, the binding [3] was “binds”.
With “Gluc2-E2F4 FL (from UniProt Q16254 1-413)” the binding (Gluc1-TAp63α (human)) was “no binding”, the binding [4] was “binds” and the binding [5] was “binds”. The binding [6] was “binds”.
Gluc2-p130 (from UniProt Q08999 1-1139) was tested, and the binding [7] was “binds”, the binding (Gluc1-TAp63α (human)) was “no binding” and the binding (Gluc1-ΔNp73α FL (human)) was “no binding”.
Gluc2-DP1 (from UniProt Q14186 1-410) was tested, and the binding (Gluc1-TAp63α (human)) was “no binding” and the binding (Gluc1-ΔNp73α FL (human)) was “no binding”.
